# Test results as given in the supplement of paper PMC8285479.
# Counter-ions that a name gives are not always drawn. ± gives the standard deviation of the averaged measurements. The full ranking holds about 1,900 compounds; the median of “normalised cell viability (NPI; 0 = phenylarsine oxide control, 1 = DMSO control)” is about 1, and the lowest 2% start at about 0.039. The list shows a part of the results.
# System: NCI-H1944
# Assay: normalised cell viability (NPI; 0 = phenylarsine oxide control, 1 = DMSO control) (fraction of DMSO control); NCI-H1944 is a non-small cell lung cancer line; higher = more viable cells (less compound toxicity)
# Conditions: 6 days
# [1] = glucocorticoid arm: hydrocortisone 2.75 uM co-treatment, compound 1 µM
# [2] = glucocorticoid arm: hydrocortisone 2.75 uM co-treatment, compound 5 µM
# [3] = glucocorticoid arm: hydrocortisone 2.75 uM pre-treated 2 days and continued, compound 1 µM
# [4] = glucocorticoid arm: hydrocortisone 2.75 uM pre-treated 2 days and continued, compound 5 µM
# [5] = glucocorticoid arm: vehicle, compound 1 µM
# [6] = glucocorticoid arm: vehicle, compound 5 µM
# 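Further: CTB read-out in 384-well plates, mean of triplicate wells, normalised per plate against 1 µM phenylarsine oxide and 0.1% DMSO, compounds added 24 h after seeding.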
SMILES,normalised cell viability [1],normalised cell viability [2],normalised cell viability [3],normalised cell viability [4],normalised cell viability [5],normalised cell viability [6]
Cn1cc(C2=C(c3cn(C4CCN(Cc5ccccn5)CC4)c4ccccc34)C(=O)NC2=O)c2ccccc21,1.007 ± 0.0058,1.03 ± 0.023,1.02 ± 0.016,1.02 ± 0.011,1.013 ± 0.0058,1.02 ± 0.02
NC(=O)c1cc(N2CC2)c([N+](=O)[O-])cc1[N+](=O)[O-],1.01,0.954 ± 0.012,1.037 ± 0.0058,1 ± 0.065,0.977 ± 0.015,0.8203 ± 0.0076
C[C@@H]1O[C@H](C[N+](C)(C)C)C[C@H]1O (racemic) [(±)-Muscarine chloride],1.02 ± 0.011,1.03 ± 0.035,1.01 ± 0.015,1.05 ± 0.085,0.9963 ± 0.0047,1 ± 0.014
CP(=O)(O)C1=CCNCC1,1.02 ± 0.017,1.02 ± 0.01,1.03 ± 0.032,1.023 ± 0.0058,1.01,1.01 ± 0.011
NC(CCCCCP(=O)(O)O)C(=O)O (racemic) [(±)-2-Amino-7-phosphonoheptanoic acid],0.98 ± 0.012,0.9763 ± 0.0025,0.9903 ± 0.005,0.97 ± 0.013,0.9873 ± 0.004,0.972 ± 0.0072
CN1CC[C@]2(CCN3CCc4c(oc5ccccc45)[C@@H]3C2)N(C)C1=O,1.003 ± 0.0058,0.974 ± 0.015,1.01,0.889 ± 0.24,1.013 ± 0.0058,1.02 ± 0.015
Cc1cccc(Cc2c[nH]cn2)c1C [Detomidine HCl],1.03,1.05 ± 0.02,1.02 ± 0.02,1.03 ± 0.039,1.023 ± 0.0058,1.02 ± 0.011
N#CC(C#N)=Cc1ccc(O)c(O)c1,1.01 ± 0.015,1.03 ± 0.015,1.01 ± 0.01,1 ± 0.018,1.01,1.023 ± 0.0058
N#CC(C#N)=Cc1ccc(O)c(O)c1 [Tyrphostin 23],1.01 ± 0.01,1.033 ± 0.0058,0.898 ± 0.2,0.987 ± 0.011,1.02 ± 0.01,1.027 ± 0.0058
NC(=O)CI [Iodoacetamide],1.007 ± 0.0058,1.02 ± 0.011,1.017 ± 0.0058,0.991 ± 0.021,1.003 ± 0.0058,1.013 ± 0.0058
"COc1ccc2[nH]c3c(c2c1)CCNC3 [6-Methoxy-1,2,3,4-tetrahydro-9H-pyrido[3,4b] indole]",0.979 ± 0.019,0.968 ± 0.024,0.994 ± 0.0072,0.974 ± 0.051,0.986 ± 0.011,0.9777 ± 0.004
Cc1cccc(C)c1NC(=O)CN1CCCC1=O [Nefiracetam],0.985 ± 0.014,0.94 ± 0.0061,0.996 ± 0.017,0.966 ± 0.016,0.9843 ± 0.007,0.9927 ± 0.0075
CC(C)NC(C)Cc1ccc(I)cc1 (stereo unspecified) [Iofetamine hydrochloride],0.997 ± 0.012,0.938 ± 0.02,1.003 ± 0.0061,1.04 ± 0.085,0.975 ± 0.0056,0.9927 ± 0.0067
CN1CCCCC1Cn1cc(C(=O)c2cc([N+](=O)[O-])ccc2I)c2ccccc21 (stereo unspecified),1.02 ± 0.015,0.99 ± 0.026,1.04 ± 0.01,1.01 ± 0.029,1.013 ± 0.0058,1.001 ± 0.0081
COC(=O)N1CCN(C(=O)Cc2ccc(Cl)c(Cl)c2)C(CN2CCCC2)C1 (stereo unspecified),1.02 ± 0.01,1 ± 0.028,1.02 ± 0.021,1.04 ± 0.029,0.9913 ± 0.0081,0.9957 ± 0.0075
NCC#Cc1ccccc1 [3-Phenylpropargylamine hydrochloride],0.994 ± 0.0027,1 ± 0.016,1.02 ± 0.035,0.9913 ± 0.0081,0.9867 ± 0.0057,0.981 ± 0.0087
